Values marked as one replicate rest on one cluster of the flow cell; about a third of the high ones do not repeat.
System: ATP
Assay: switch fluorescence ratio, 500 uM ATP over buffer (Cy3 cluster intensity, sum of 5 cycles each) (fold (ratio)); higher = stronger signal-on switching upon ATP binding; sequences stand for … in TCGTCGGCAGCGTCAGATGTGTATAAGAGACAGTTTTTTTTTTTTTTTTTTTTTTTTT…TC
Settings: aptamer strand: ATP DNA aptamer (quencher-CACCTGGGGGAGTATTGCGGAGGAAGG + anchor), 100 nM annealed; ATP concentration: 500 uM; one replicate
Method in brief: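 Cy3-labelled switching-strand clusters on a modified Illumina MiSeq flow-cell were annealed to 100 nM quencher-labelled ATP aptamer and imaged first in selection buffer, then after 15 min with 500 uM ATP at 22 °C. NaOH stripping and re-annealing separated each of five buffer/ATP cycles, and clusters outside 100-1000 RFU were excluded. The fluorescence ratio sums target-cycle Cy3 intensity over buffer-cycle Cy3 intensity per cluster and averages it per switch-domain sequence.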
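Note: ATP exposure 15 min at 22 °C before imaging.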

Sequence	switch fluorescence ratio
ACGGACGCGG	1.03
GATGTCCTTT	0.988
AGCGTGATTC	1.06
GGGTGTCTTA	1.01
AGTTATAACC	0.973
CGCGGCGCTT	1.01
TTAGAGGACA	1.01
ATGCATGTGT	1.07
AGTACGGTGT	0.988
GTGGAACTGA	1.04
GGTGAGCAAT	3.32
TCGTCTCTAA	0.967
GCTCGGTGGC	1.05
TTCTAAAGCT	1.09
GTCTTTTTCC	1.19
TTATTCGGA	1.02
CATCGTTCAA	1.14
TAAGGTTGAA	0.957
TTTTGAACCT	2.06
TCTCTAAAGT	1
GCGGTCCGAC	1.09
CTCGTCGCT	0.997
GACCGAGGGC	0.973
TTCGGATGT	1.04
TTCGGAATAA	1.26
TTCAGTTCGC	0.969

Sequence	switch fluorescence ratio
GTTATGACGG	1.11
AACTTGTAAC	1.02
GGCCCCAGAG	1.72
GAATAATCGA	1.02
GCAGTCATG	0.983
CACTCCTAAT	1.12
TGTGGCCGGT	0.993
GCTGAGAGCT	0.982
TTCTGTCTAC	1.07
TCTGCCACGT	0.996
CCTTGCATTG	1.76
TTTGCTGTGC	1.07
CCGTATAGC	3.04
GCACCCCGAT	1.08
CTTCATGGAG	1.04
CCCCGGGGAA	1.05
CCGGACGG	1
GGTCCATCCT	0.984
TCTGTTACC	1.06
CCGGCTATGG	1.25
AACTCGCATT	1.3
CCAGTATA	0.997
AACAGTGTGG	0.984
ATAAGGTGC	1.26
GGTGGGTAAG	1.01
TCAGGAGGTT	1

Sequence	switch fluorescence ratio
CTGAGGATAG	1.06
CGACCCGGGT	1.08
GATCAACTCT	1.02
ATTACAATGT	1.03
TTTCAAAAA	0.975
AGGGTCTAAC	0.991
ACTCGGGGTC	0.975
AATGCCTTG	0.992
AACAGAGCCA	0.957
CTGAGTGGAA	0.997
AAATGGTTAG	0.963
TAAAATAGGC	1.13
CCCTGGAAG	1.32
ACTTGATAA	1.01
GCACTATCTA	1.03
CATGAGTATA	1.01
CGCGCCCTCG	1.03
TAGGGTAGTA	1.01
TGATGCTGGG	1.02
GGCCCATTC	1.06
ACCTCCAAAG	2.3
GGCGATTTTC	0.976
AACGAGCATG	1.03
AGAATCAGCT	0.992
TCTGGTATT	1.03
GGGTCTTGTT	1

Sequence	switch fluorescence ratio
GGTGATGTA	0.968
GGAACGACGG	0.981
CGGACTACA	1.08
ATCTTTGTGC	1.02
CGTTGCAGTG	0.985
ACATGAGAAT	0.987
GAGCAGTTGT	0.955
TGATACCACG	1.14
GGCCCGTACG	1.01
CTAAATCAGG	1.02
CGTCGCGATC	3.42
AACTTATGGC	0.957
CACTTTCGTC	1.03
CATGGACCAG	1.03
GTCGTTAATG	0.945
GCCAAGTCGG	0.96
ATGTCGAAAT	1
TGGGTTTCAT	1.01
CTCACGGAAG	1.1
CCCGAGGGAG	1.06
TAGTTAGCTG	1.06
CGGGTTGTTT	1.04
AAAGAAATGG	0.963
TAGCAGACCG	1.02
ACATTTGCCG	1
CACAAAGGGC	1

Sequence	switch fluorescence ratio
CCGGAGTGCA	3
CTAGGGGGAC	1.01
AGTTTTGTAC	1.29
AAGTAATCTG	1.01
CAATAACGGC	0.987
TTTCCACGTC	1.02
CGAGTATAAG	0.977
GGCGATTACG	1.03
ACGTGCGGGG	1.02
CATTGGCCAA	0.99
CTTCATTAAG	1.02
TTTTTCGT	1.01
CATCTAAAGC	1.21
TAAGCGGTGG	0.953
CCTGGGTACT	1.03
TTTTACT	1.03
TTATGAAAGT	0.961
ATTATTATAC	1.05
GAGCAAGTAA	1.25
TCACGTGTGA	0.954
GTCCTTCCCG	2.42
ACCTTCGGC	1.1
CTATATTCA	1.02
TAATGAATGC	1.05
AAAGAAATAC	1.42
CCCTATTAGG	1.04

Sequence	switch fluorescence ratio
TGTTTTCTG	0.936
TCTTCCGGCC	1.55
AGGGTCATTT	1.03
CGTTATTTTA	1.01
GCTTAATTTT	1.02
AGTCAAGTCT	1.07
TAAATGAAAG	1.03
GAGGGCTTCA	1.05
GACTAAACGT	1.46
CGCGTATGCT	1.05
ATGTTGGCCT	0.999
ATAAAGAGCT	1.06
ATGTTAGCAT	1.02
ACGAACGGGA	1.38
CCCTCGCGTT	1.65
GCCGAGCCCT	0.993
TCTCTCAA	1.23
TGCCTATCAA	1.02
AAAAAAGAAC	0.935
TTCCTGTCGG	0.998
TGTGACAGCG	0.998
GGGGACGCGT	1.07
TTCCCGTTCG	0.972
CTCGAGTGA	1.03
